Among all 230,000 compounds or so, about 1,500 (0.65%) were called active. The shares of active, inactive and inconclusive entries below differ from those in the screen. Calls come from the whole dose curve; as a rule, active = well fitted inhibition curve with a large enough effect; inconclusive = small, poorly fitted or top-dose-only effect; inactive = no such curve, though single readings can be large or run the other way. A potency beside an inconclusive call is a rough fit, not a confirmed value.
molecular target: Lethal(3)malignant brain tumor-like protein 1 (Homo sapiens) (UniProt Q9Y468); assay: qHTS Assay for the Inhibitors of L3MBTL1; details: AlphaScreen L3MBTL1–H3K9me1 peptide binding; activity, negative = inhibition: at 57.1 µM (top of the series); note: nearly all actives have a fitted effect of over 60% in size
Summary of the method: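 AlphaScreen assay: L3MBTL1 (50 nM final) was preincubated 30 min at room temperature with biotinylated H3(1-15)K9me1 peptide (75 nM final), then 30 min with library compounds; streptavidin donor and nickel chelate acceptor beads (10 ug/mL final) added, 30 min dark.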
% is set by controls: 0 for no effect and ±100 for the full control effect; potency is the fitted concentration of half-maximal effect; tags give direction and shape of the fitted curve.

UniProt Q9Y468, sequence (Q9Y468 whole entry, looked up): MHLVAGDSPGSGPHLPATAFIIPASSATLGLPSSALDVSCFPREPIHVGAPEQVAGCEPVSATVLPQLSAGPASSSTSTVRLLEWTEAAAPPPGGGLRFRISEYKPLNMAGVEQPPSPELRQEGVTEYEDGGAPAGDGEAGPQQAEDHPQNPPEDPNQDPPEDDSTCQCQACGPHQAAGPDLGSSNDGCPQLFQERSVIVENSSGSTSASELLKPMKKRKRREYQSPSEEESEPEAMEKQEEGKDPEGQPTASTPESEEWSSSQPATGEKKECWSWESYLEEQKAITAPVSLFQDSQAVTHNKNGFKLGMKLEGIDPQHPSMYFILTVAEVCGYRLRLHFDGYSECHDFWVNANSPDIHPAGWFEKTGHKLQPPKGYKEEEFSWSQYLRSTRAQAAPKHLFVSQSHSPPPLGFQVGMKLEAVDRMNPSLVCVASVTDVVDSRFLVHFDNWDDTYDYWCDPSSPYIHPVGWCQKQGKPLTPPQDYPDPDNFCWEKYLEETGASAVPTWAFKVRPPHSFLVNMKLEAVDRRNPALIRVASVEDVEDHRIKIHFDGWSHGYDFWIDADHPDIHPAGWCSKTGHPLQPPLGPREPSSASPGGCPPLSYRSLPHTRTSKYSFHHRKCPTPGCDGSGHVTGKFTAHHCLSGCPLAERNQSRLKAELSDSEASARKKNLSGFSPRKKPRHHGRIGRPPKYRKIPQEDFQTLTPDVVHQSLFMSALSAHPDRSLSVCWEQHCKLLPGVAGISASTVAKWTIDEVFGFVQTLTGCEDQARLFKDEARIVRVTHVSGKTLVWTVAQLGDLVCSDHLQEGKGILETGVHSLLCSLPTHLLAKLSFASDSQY

Row | Structure (SMILES) | activity, negative = inhibition | Potency
1 | Cc1cccc(NC(=O)CSCC(=O)Nc2ccccc2C(=O)NC2CC2)c1 | inactive: 12.2% | 
2 | Cc1cccc(OCCn2c(=S)[nH]c3ccccc32)c1 |  | inconclusive: 3.98 µM [inhibitor, full curve]
3 | CCCCn1c(SCC(=O)c2cc(OC)ccc2OC)nc2cc(S(N)(=O)=O)ccc21 | inactive: -2.34% | 
4 | Cn1cnnc1SC(C(=O)Nc1cc(Cl)cc(Cl)c1)c1ccccc1 (configuration not stated) |  | inconclusive: 6.31 µM [inhibitor, single point]
5 | C/C(=N\Nc1cc(C)nc(-c2ccccc2)n1)c1cccc([N+](=O)[O-])c1 |  | inconclusive: 0.447 µM [inhibitor, full curve, poor fit]
6 | O=C(/C=C/c1ccco1)NC(=S)Nc1ccccc1N1CCCC1 |  | inconclusive: 35.5 µM [inhibitor, partial curve]
7 | O=C(CNc1ccc(F)cc1)N/N=C1\CCCc2ccccc21 |  | inconclusive: 1.41 µM [inhibitor, partial curve]
8 | Brc1ccc(-c2nn3c(-c4ccccn4)nnc3s2)o1 |  | inconclusive: 35.5 µM [inhibitor, single point]
9 | NC(=O)c1ccc(NC(=O)C2CCCC2)cc1 |  | inconclusive: 25.1 µM [inhibitor, partial curve, poor fit]
10 | O=C(c1cc(Br)c(Br)s1)N1CCOCC1 | inactive: 12.6% | 
11 | O=[N+]([O-])c1ccc(Nc2ccccc2)nc1 | inactive: 14.1% | 
12 | C=CCNC1=C(Cl)C(=O)c2ccccc2C1=O |  | inconclusive: 15.8 µM [inhibitor, partial curve]
13 | CSc1nc(-c2ccco2)nn1C(=O)c1ccccc1 | inactive: 1.26% | 
14 | O=C(NNC(=O)c1cccc(Br)c1)Nc1ccc(Cl)cc1 | inactive: -6.44% | 
15 | Cc1c(C(=O)OCc2ccccc2)[nH]c2c1C(=O)CC(c1ccco1)C2 (configuration not stated) |  | active: 25.1 µM
16 | O=C(CNCC1CCCCC1)Nc1ccc(N2CCCCC2)cc1 |  | inconclusive: 39.8 µM [inhibitor, partial curve, poor fit]
17 | CC1=CC(C)(C)Nc2ccc(OC(=O)C(C)N3C(=O)c4ccccc4C3=O)cc21 (configuration not stated) |  | inconclusive: 15.8 µM [inhibitor, partial curve]
18 | CCOC(=O)c1c(-c2ccc(C)s2)csc1NC(=O)c1ccco1 | inactive: 8.62% | 
19 | CCN(CC)c1ccc(NC(=S)NC(=O)c2ccco2)cc1 |  | inconclusive: 7.08 µM [inhibitor, partial curve]
20 | O=C(NC(=S)N1CCN(C/C=C/c2ccccc2)CC1)c1ccc(Cl)nc1 | inactive: -1.8% | 
21 | O=C(NCCc1cccc(Cl)c1)c1cccc([N+](=O)[O-])c1 |  | inconclusive: 39.8 µM [inhibitor, single point]
22 | COCCn1nnnc1CN1CCN(c2cccc(C(F)(F)F)c2)CC1 |  | inconclusive: 7.08 µM [inhibitor, single point]
23 | O=[N+]([O-])c1ccc2c(c1Nc1ccccc1Cl)=NC1(CCCCC1)N=2 |  | inconclusive: 1.12 µM [inhibitor, full curve]
24 | CN(C(=O)CSc1nc2cc(Cl)ccc2c(=O)n1Cc1ccco1)C1CCS(=O)(=O)C1 (configuration not stated) |  | inconclusive: 11.2 µM [inhibitor, partial curve]

Row | Structure (SMILES) | activity, negative = inhibition | Potency
25 | S=c1oc(-c2ccncc2)nn1CCc1ccncc1 | inactive: -0.866% [at 11.4 µM] | 
26 | O=C(NCCCO)C(=O)NCCc1ccc(Cl)cc1 |  | inconclusive: 0.794 µM [inhibitor, single point]
27 | O=C(COc1ccccc1)Nc1nnc(-c2ccco2)o1 |  | inconclusive: 11.2 µM [inhibitor, partial curve]
28 | CS(=O)(=O)N(CC(=O)Nc1ccc2c(c1)OCCO2)Cc1ccccc1 |  | inconclusive: 0.708 µM [inhibitor, single point]
29 | O=C(O)CN1C(=O)C2C3C=CC(C3)C2C1=O (configuration not stated) |  | inconclusive: 22.4 µM [inhibitor, single point]
30 | Cc1c(Br)c(O)c(Br)c2sc(=O)oc12 |  | active: 35.5 µM
31 | Cc1ccccc1N=Cc1cccc(O)c1O |  | active: 2.51 µM
32 | COc1cccc(NC2=C(C#N)C(=O)NC(c3cccc(OC)c3O)S2)c1 (configuration not stated) | inactive: -4.85% | 
33 | COCCn1c(-c2ccc(Br)cc2)csc1=Nc1cccnc1 | inactive: -6.19% | 
34 | CC(O/N=C(\N)c1ccccc1)C(=O)Nc1cccc(C(F)(F)F)c1 (configuration not stated) | inactive: -1.22% | 
35 | CC1=C(C(=O)OC(C)C)C(c2ccco2)NC(=O)N1 (configuration not stated) |  | inconclusive: 22.4 µM [inhibitor, single point]
36 | O=C(Cc1cccs1)Nc1ccc(S(=O)(=O)Nc2ncccn2)cc1 |  | inconclusive: 31.6 µM [inhibitor, single point]
37 | CN(C)S(=O)(=O)c1ccc(C(=O)OCC(=O)NCc2ccco2)cc1 |  | inconclusive: 39.8 µM [inhibitor, single point]
38 | CCOc1ccc(NC(=O)Cc2ccccc2)c([N+](=O)[O-])c1 |  | active: 5.01 µM
39 | O=C(NC(=S)NNC(=O)c1cc2ccccc2cc1O)c1ccco1 |  | inconclusive: 39.8 µM [inhibitor, single point]
40 | CCOc1ccc(Nc2ncnc3ccc([N+](=O)[O-])cc23)cc1 |  | inconclusive: 2.51 µM [inhibitor, full curve, poor fit]
41 | c1ccc(-n2ncc3c(NCc4ccc5c(c4)OCO5)ncnc32)cc1 |  | inconclusive: 2.51 µM [inhibitor, full curve, poor fit]
42 | CCNC(=O)COC(=O)c1[nH]c(C)c(C(=O)OC)c1C |  | inconclusive: 4.47 µM [inhibitor, full curve, poor fit]
43 | Cc1cccc(-c2noc(CN(C(=O)C34CC5CC(CC(C5)C3)C4)C(C)C)n2)c1 |  | inconclusive: 4.47 µM [inhibitor, single point]
44 | S=C(NNc1ccc2ccccc2c1)NC1CCCCC1 |  | inconclusive: 31.6 µM [inhibitor, partial curve]
45 | COC(=O)c1ccc(/C=C/c2ccc3cccc(OC)c3n2)cc1 | inactive: 45.8% | 
46 | CCCc1cc(=O)[nH]c(Nc2ccc3c(c2)OCCO3)n1 |  | inconclusive: 0.708 µM [inhibitor, partial curve, poor fit]
47 | COc1ccc(NS(=O)(=O)c2cc(NC(=O)c3cc(=O)c4ccccc4o3)ccc2OC)cc1 |  | inconclusive: 1 µM [inhibitor, full curve]
48 | COc1ccc(/C=N/NC(=O)c2cccc(Br)c2)cc1CN1CCOCC1 |  | inconclusive: 6.31 µM [inhibitor, single point]

Row | Structure (SMILES) | activity, negative = inhibition | Potency
49 | Cc1csc(NC(=O)CCn2c(=O)oc3ccccc32)n1 |  | inconclusive: 7.94 µM [inhibitor, full curve, poor fit]
50 | CCOc1[nH]n(-c2ccccc2)c(=O)c1C=Nc1ccc(OC)cc1 |  | inconclusive: 15.8 µM [inhibitor, single point]
51 | Cc1ccccc1C(=O)NC1CCN(C(=O)Nc2ccccc2Cl)CC1 |  | inconclusive: 0.1 µM [inhibitor, full curve, poor fit]
52 | Nc1ccc2c(c1)-c1ccccc1S(=O)(=O)N2 |  | inconclusive: 15.8 µM [inhibitor, partial curve]
53 | CC(NC1CCCC1)c1ccccc1 (configuration not stated) |  | inconclusive: 10 µM [inhibitor, partial curve, poor fit]
54 | CC1CC(N(C(=O)C2CC2)c2ccccc2)c2ccccc2N1C(=O)C1CC1 (configuration not stated) | inactive: 0.312% | 
55 | O=C(CNC(=O)c1cccc(Br)c1)N/N=C/c1cn[nH]c1-c1ccccc1 |  | inconclusive: 39.8 µM [inhibitor, single point]
56 | O=C(Nc1nnc(-c2ccccc2)o1)Nc1ccccc1Cl |  | inconclusive: 39.8 µM [inhibitor, single point]
57 | CCc1ccccc1NNC(=O)c1snnc1C | inactive: -0.112% | 
58 | COc1ccc(-c2nc(-c3ccc4c(c3)OCO4)[nH]c2-c2ccc(OC)cc2)cc1 |  | inconclusive: 39.8 µM [inhibitor, partial curve]
59 | Cc1cc(Cl)ccc1NNC(=O)CCc1ccccc1 |  | inconclusive: 10 µM [inhibitor, partial curve, poor fit]
60 | Cc1ccc(/C=N/NC(=O)c2cc(C3CC3)nc3ccccc23)o1 | inactive: 0% | 
61 | O=c1cc(-c2ccc(O)c(-c3c(O)cc(O)c4c(=O)cc(-c5ccc(O)cc5)oc34)c2)oc2cc(O)cc(O)c12 | inactive: -16.5% | 
62 | Cc1cc(C)cc(NCc2cc3c(cc2[N+](=O)[O-])OCO3)c1 |  | inconclusive: 10 µM [inhibitor, partial curve]
63 | NNC(=O)C(=O)/C=C1\NC2(CCCC2)Cc2ccccc21 | inactive: -12.6% | 
64 | CS(=O)(=O)c1cccc(C(=O)Nc2nnc(C3=COCCO3)o2)c1 |  | inconclusive: 31.6 µM [inhibitor, partial curve]
65 | COc1ccc(N2CCN(CC(=O)Nc3ccccc3C(=O)NCc3ccccc3)CC2)cc1 |  | inconclusive: 39.8 µM [inhibitor, single point]
66 | O=C(COC(=O)CCC(=O)c1ccc(F)cc1)Nc1ccccc1 | inactive: 0.339% | 
67 | O=C(Nc1ccncc1)c1cncc(Br)c1 | inactive: -8.07% | 
68 | COc1ccc([N+](=O)[O-])cc1N1C(=O)c2cccnc2C1=O |  | inconclusive: 14.1 µM [inhibitor, partial curve]
69 | CCN(CC)c1ccc(/C=N\N2CCN(Cc3ccc(C)cc3)CC2)cc1 |  | inconclusive: 0.316 µM [inhibitor, full curve]
70 | CCOc1ccccc1-c1c2cc(O)c(=O)cc-2oc2cc(O)c(O)cc12 |  | active: 1.26 µM
71 | O=C(/C=C/c1ccc(Cl)cc1)Nc1cc(S(=O)(=O)N2CCOCC2)ccc1N1CCOCC1 |  | inconclusive: 10 µM [inhibitor, partial curve, poor fit]
72 | Clc1ccc(CNc2ccc(N3CCN(Cc4ccccc4)CC3)cc2)cc1 |  | inconclusive: 31.6 µM [inhibitor, single point]
